# In the BET-seq Pho4 binding data (Le et al. 2018):
# Some of the results follow. Values were computed here from the reads of four pooled replicates and scatter widely.
# Target: T1, Pho4 (S. cerevisiae) (UniProt P07270)
# T1 sequence: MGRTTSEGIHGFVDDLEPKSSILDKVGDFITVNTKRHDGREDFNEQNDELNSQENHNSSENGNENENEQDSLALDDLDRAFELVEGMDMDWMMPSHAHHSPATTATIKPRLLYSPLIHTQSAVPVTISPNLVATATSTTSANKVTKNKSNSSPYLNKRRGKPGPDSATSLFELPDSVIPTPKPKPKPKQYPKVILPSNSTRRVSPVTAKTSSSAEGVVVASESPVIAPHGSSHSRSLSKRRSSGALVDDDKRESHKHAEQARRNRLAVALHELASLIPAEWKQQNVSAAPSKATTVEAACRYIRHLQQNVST
# Assay: relative binding free energy (BET-seq); higher = weaker binding
# Conditions: reference: library average
row,Sequence,relative binding free energy [kcal/mol]
1,AGTATCACGTGTGGAG,0.03
2,GGAAGCACGTGCGGAG,-0.2
3,GGTTACACGTGGCTGT,0.1
4,GGTGCCACGTGCGTGG,-0.05
5,AGTGGCACGTGGTGTC,-0.15
6,TGGGGCACGTGTAGAG,0.03
7,TGAGACACGTGGGGTA,-0.08
8,GTATTCACGTGGAGGC,0.31
9,AGGTTCACGTGTTTAA,0.26
10,TTTTCCACGTGTTACG,0.2
11,TTTTCCACGTGCTGGG,-0.04
12,AAGGTCACGTGGTGGG,0.16
13,TGTTACACGTGGGCGT,0
14,GTGACCACGTGGGGTG,-0.15
15,GATCACACGTGTGGAG,0.24
16,CTGGGCACGTGTTTAA,-0.14
17,TAAGACACGTGTATTG,-0.07
18,GTTACCACGTGAGGTT,0.15
19,GTTTGCACGTGAGCTA,0.3
20,CCATGCACGTGGTGGG,-0.23
21,ATTTCCACGTGATTGG,0.12
22,AGTTGCACGTGTAACG,0.04
23,CGGGGCACGTGGCATA,-0.22
24,ATTAGCACGTGTATAT,0.03
25,AATAGCACGTGTGGTA,-0.14

row,Sequence,relative binding free energy [kcal/mol]
1,TATGACACGTGGAATG,0.07
2,TTTGACACGTGTAACT,0.1
3,GCGTGCACGTGTTATA,0
4,AATGGCACGTGTCTGT,-0.04
5,ATTATCACGTGGGGTT,0
6,GATTGCACGTGGGAGC,0.19
7,GGGATCACGTGAGAGG,0.4
8,GGGTACACGTGGGAGG,0
9,GGTCTCACGTGGGTAA,0.14
10,GAGTACACGTGCGTGT,-0.08
11,TAGAGCACGTGCTGGG,-0.13
12,GGATGCACGTGACGGG,0.19
13,TCGATCACGTGGTGTG,0.13
14,GTGCTCACGTGTGGAA,0.27
15,AGGGACACGTGCGGTA,-0.08
16,TAGAACACGTGGAAGT,0.24
17,TAGTTCACGTGTGCCT,0.28
18,ACAGTCACGTGATGGT,0.15
19,GAGTCCACGTGTGGTA,0.06
20,ATGTCCACGTGAGGCG,0.31
21,TAATTCACGTGAAATG,0.31
22,GGTTACACGTGTCTTA,0.2
23,AGGATCACGTGGATGA,0.17
24,AGGTTCACGTGGAGTC,0.28
25,AGTTTCACGTGAGACG,0.3

row,Sequence,relative binding free energy [kcal/mol]
1,GTTAGCACGTGGAGAG,-0.04
2,GTCATCACGTGAGTGT,0.22
3,CGGTGCACGTGTGGTA,-0.1
4,CTTTTCACGTGGAATT,0.35
5,TTATACACGTGATTGC,0.2
6,GGAAGCACGTGGATTT,-0.07
7,GGGAACACGTGTATAT,0.17
8,GTGAGCACGTGTAATG,0.11
9,TCTTCCACGTGTGGTG,0.22
10,AAGGTCACGTGAGGTC,0.22
11,AGGGCCACGTGGGGGT,-0.24
12,TGGATCACGTGGGGAG,-0.05
13,TGTTACACGTGTTAGT,0.11
14,GGTGCCACGTGAGGGT,0.16
15,GAGATCACGTGTGAGT,0.33
16,TGTGTCACGTGGGTGA,0.03
17,ATATTCACGTGATGTA,0.03
18,TTATGCACGTGGGCCG,-0.23
19,AGGAGCACGTGGCTTG,-0.14
20,TTGGGCACGTGGTATG,-0.17
21,TGTAGCACGTGTCAGT,-0.06
22,AAGTGCACGTGGGATT,-0.16
23,CGGTGCACGTGAGTGG,0.12
24,AAATCCACGTGAGTTG,0.42
25,TAGGACACGTGGTATT,-0.02

row,Sequence,relative binding free energy [kcal/mol]
1,GGTTTCACGTGTGTAG,0.26
2,TTTGGCACGTGTGGTT,-0.02
3,ATTGACACGTGTTGGA,-0.02
4,GGTTACACGTGGGTGG,0.04
5,TTTGGCACGTGTCGCG,0
6,ATAGACACGTGAGTTT,0.33
7,GTTGGCACGTGTTGCA,-0.11
8,CAAGTCACGTGGGAGA,0.09
9,ACGTGCACGTGGAGGG,-0.08
10,TTATGCACGTGGTTGG,-0.05
11,AAATTCACGTGATGGG,0.43
12,GTAGGCACGTGAAATT,0.2
13,GTAGACACGTGGGGCG,-0.06
14,TGTTCCACGTGTGAAT,0.08
15,ATTGGCACGTGTGGTT,-0.09
16,TGGGTCACGTGGCGCT,0.05
17,GAGGTCACGTGGACTT,0.29
18,TATGACACGTGCTATG,0.01
19,TTAGACACGTGTGTGA,-0.01
20,TTTAGCACGTGGGTGG,-0.23
21,GCATGCACGTGGGTAT,-0.2
22,GTGGGCACGTGGACGC,0.05
23,TGATCCACGTGCTGGT,0.12
24,AGTTTCACGTGTTTTC,0.21
25,GGTAACACGTGATTTT,0.33

row,Sequence,relative binding free energy [kcal/mol]
1,TACTTCACGTGTGGAG,0.3
2,GAAGTCACGTGTTTCG,0.19
3,GGTATCACGTGGACGG,0.25
4,GGACTCACGTGGGGGG,0.12
5,GGCGACACGTGAGGGT,0.22
6,GATAGCACGTGTGTAT,0.11
7,CGGAACACGTGGAGTG,-0.13
8,ATGGGCACGTGGGAGC,-0.25
9,TGGATCACGTGTATGC,0.15
10,TAGTACACGTGTATTT,0.14
11,GAGTTCACGTGCGATG,0.31
12,GTTGGCACGTGAGAAT,0.31
13,TGAGCCACGTGTATGG,-0.11
14,TTTGGCACGTGCCGAT,-0.08
15,GTGGGCACGTGTTTAT,0
16,TAGGCCACGTGTCGGG,-0.05
17,TATGTCACGTGCTATT,-0.12
18,GGCGTCACGTGGATAA,0.24
19,TACAACACGTGTGGGG,0.04
20,TAAGTCACGTGTGAAT,0.13
21,TCAGGCACGTGGTGAG,-0.09
22,GTAATCACGTGGGTTA,0.02
23,TTTACCACGTGTGAGT,0.11
24,TTATACACGTGCGGAG,0.04
25,GGAGTCACGTGTGCGA,0.08

row,Sequence,relative binding free energy [kcal/mol]
1,GTTAGCACGTGGATTG,0.05
2,TCGCGCACGTGTTGGA,-0.08
3,ATAGCCACGTGGGTTG,-0.18
4,TCAAGCACGTGTTGTT,-0.06
5,AGGTGCACGTGTTAGT,-0.12
6,TTTGTCACGTGTGCAT,0.14
7,TAAGACACGTGGTCTT,-0.07
8,ATTATCACGTGCTGTG,0.14
9,AAGGACACGTGAGAGT,0.24
10,AGTCACACGTGGTGTT,-0.02
11,AATTGCACGTGTTCTA,0.03
12,GTCGTCACGTGGTGGA,0.04
13,TAAGGCACGTGGCTTG,-0.08
14,ATTGTCACGTGAGAAT,0.27
15,GGCAGCACGTGGGAAG,-0.08
16,GGGGACACGTGGCAAG,-0.03
17,GAAGGCACGTGATGGA,0.01
18,GGTTTCACGTGAGTGG,0.32
19,GTTCTCACGTGTTGGT,0.27
20,TAGTACACGTGAAGAG,0.27
21,TTAGTCACGTGATTCG,0.33
